Structures can show the parent of a compound that is named as a salt. ± gives the standard deviation of the averaged measurements. Whole data set: some 2,000 compounds, median “cell viability relative to DMSO control (compound alone)” near 0.98, cut for the lowest 2% near 0.23. The list shows a part of the results.

Our source for the cell viability values is the supplement of paper PMC9588766.

For the experiment, the system named is PDC-DUC18828. Briefly: cell viability relative to DMSO control (compound alone) (fraction); PDC-DUC18828 is a patient-derived cholangiocarcinoma cell line; higher = less growth inhibition. The conditions noted are these: 1 µM; 72 h. On the procedure: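 Selleck Bioactive library screen in the patient-derived FGFR2-G3BP2 fusion-positive ICC cell line PDC-DUC18828 (500 cells/well). Each compound was tested at 1 uM alone, in triplicate, for 72 h. Viability was read by CellTiter-Glo and normalised to plate DMSO controls.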
Take `COc1c(N2C[C@@H]3CCCN[C@@H]3C2)c(F)cc2c(=O)c(C(=O)O)cn(C3CC3)c12` [Moxifloxacin HCl]: the cell viability worked out at 1.07 ± 0.018.
In turn, `CC1(C)CCC[C@]2(C)[C@H]3CC(=O)O[C@]3(C)CC[C@@H]12` [Sclareolide] yielded a cell viability of 0.999 ± 0.029.
In the case of `CC(=O)OCC(=O)[C@@]1(O)[C@H](C)C[C@H]2[C@@H]3CCC4=CC(=O)C=C[C@]4(C)[C@@]3(F)[C@@H](O)C[C@@]21C` [Dexamethasone Acetate] it was 0.985 ± 0.0097.
Regarding `COc1ccc(C(=O)CC(=O)c2ccc(C(C)(C)C)cc2)cc1` [Avobenzone], the cell viability turned out to be 0.914 ± 0.027.
In the case of `Nc1nc2c(ncn2COCCO)c(=O)[nH]1` [Aciclovir] it was 0.947 ± 0.021; in that of `COc1ccc2[nH]c([S@@+]([O-])Cc3ncc(C)c(OC)c3C)nc2c1` [Esomeprazole Sodium], 0.929 ± 0.023; in that of `COc1ccc2[nH]c([S@@+]([O-])Cc3ncc(C)c(OC)c3C)nc2c1` [Esomeprazole Magnesium], 0.997 ± 0.049.
Under `Cc1cc(N2CCOCC2)cc2[nH]c(-c3c(NC[C@@H](O)c4cccc(Cl)c4)cc[nH]c3=O)nc12` stands 0.71 ± 0.025; under `CC(C)NCC(O)c1ccc(O)c(O)c1` (stereo unspecified) [Isoprenaline HCl], 0.978 ± 0.037.
Under `CS(=O)(=O)N1CCN(Cc2cc3nc(-c4cccc5[nH]ncc45)nc(N4CCOCC4)c3s2)CC1` stands 0.921 ± 0.039.
`COc1cc(F)c(F)c(Nc2ccc(I)cc2F)c1NS(=O)(=O)C1(C[C@H](O)CO)CC1` [Refametinib (RDEA119, Bay 86-9766)] registered a cell viability of 0.906 ± 0.025.
In the case of `C#C[C@]1(O)CC[C@H]2[C@@H]3CCc4cc(O)ccc4[C@H]3CC[C@@]21C` [Ethinyl Estradiol] it was 1.06 ± 0.032; in that of `O=S(=O)(c1ccccc1)N(CC(F)(F)F)c1ccc(C(O)(C(F)(F)F)C(F)(F)F)cc1`, 0.939 ± 0.017; in that of `CC#CC(=O)Nc1ccc2ncnc(Nc3cccc(Br)c3)c2c1`, 0.615 ± 0.024.
As for `O=C(O)c1ccc(N2C(=O)/C(=C\c3ccc(-c4ccc([N+](=O)[O-])cc4)o3)C=C2c2ccccc2)cc1`, the cell viability is 0.942 ± 0.083.
As to `CCOC(=O)C1=C(C)NC(C)=C(C(=O)OCC)C1c1ccccc1/C=C/C(=O)OC(C)(C)C` [Lacidipine], the cell viability amounted to 1.04 ± 0.048.
`O=C(O)C(Cc1c[nH]c2ccccc12)N1C(=O)c2ccccc2C1=O` (stereo unspecified): the cell viability stood at 0.933 ± 0.01.
In turn, `CCOc1cc(CC(=O)N[C@@H](CC(C)C)c2ccccc2N2CCCCC2)ccc1C(=O)O` [Repaglinide] yielded a cell viability of 1.07 ± 0.037.
Regarding `CCOC(=O)c1ncn2c1CN(C)C(=O)c1cc(F)ccc1-2` [Flumazenil], the cell viability was found to be 1 ± 0.085.
Regarding `CC1=C(C(=O)Nc2cc3cn[nH]c3cc2F)C(c2ccc(C(F)(F)F)cc2)CC(=O)N1` (stereo unspecified), the cell viability was determined as 1.05 ± 0.059.
`CNC(=O)c1ccccc1Nc1nc(Nc2ccc(N3CCOCC3)cc2OC)ncc1Cl`: the cell viability was determined as 0.718 ± 0.036.
